# Reference: PubChem BioAssay AID1345083 (National Center for Advancing Translational Sciences (NCATS), 2018)
# Among all 94,000 compounds or so, about 6,200 (6.6%) were called active. Inconclusive results, whose numbers are uncertain, are shown with a selection of clear calls. Calls come from the whole dose curve; as a rule, active = well fitted inhibition curve with a large enough effect; inconclusive = small, poorly fitted or top-dose-only effect; inactive = flat fitted curve, though single readings scatter. Where the call is inconclusive, the potency comes from a doubtful curve fit.
# Assay: Cytotoxic Profiling in HEK 293 Cell Line of Diverse Libraries Using Quantitative High-Throughput Screening; note: nearly all actives have a fitted effect of over 60% in size
# Conditions: HEK 293 viability, ATP luminescence (CellTiter-Glo), 48-72 h; series mostly up to 115 µM
# Method in brief: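 qHTS cytotoxicity; HEK 293, 250 cells/well; compound pinned; 48 or 72 hr, 37 degree Celsius, 5% CO2, 95% humidity; CellTiter-Glo, 10 min RT; luminescence (ATP).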
# Potency is the fitted concentration of half-maximal effect; tags give direction and shape of the fitted curve.
row,Structure (SMILES),Potency
1,Cc1ccc2c(n1)N(C)[C@H](CO)CCN(C(=O)Nc1ccccc1)C2,inactive
2,O=C(NC1CCCC1)N1CC(Oc2ccc(-c3nc(-c4ccccc4)no3)cc2)C1,"inconclusive: 3.55 µM [inhibitor, full curve, poor fit]"
3,COc1ccc2c(c1)c(CN1CCC3(CC1)CC(O)CCO3)cn2C (stereo unspecified),inactive
4,Cn1cc2c3c(cccc31)CN(C(=O)c1ccccc1Cl)CC2,"inconclusive: 89.1 µM [inhibitor, single point]"
5,O=C(c1ccc(C(F)(F)F)cc1)N1CCN(c2ccc3nnc(C4CC4)n3n2)CC1,"inconclusive: 79.4 µM [inhibitor, partial curve, poor fit]"
6,COc1ccc(-c2[nH]nc3ncc(C(=O)N4CCN(Cc5ccccc5)CC4)nc23)c(C)c1,"inconclusive: 35.5 µM [inhibitor, partial curve, poor fit]"
7,Cc1nn(-c2ccc(C(F)(F)F)cc2)c(C)c1[C@@H]1C=C[C@@H](NC(=O)CSCC(=O)O)C1,"inconclusive: 89.1 µM [inhibitor, single point]"
8,CCOc1ccccc1NC(=O)N1CC(N(CC)C2CCOCC2)C1,inactive
9,COc1ccccc1-n1c(=O)c(C(=O)N2CCN(C(=O)C(C)(C)C)CC2)nc2cccnc21,inactive
10,COc1ccc(-c2nc(C)nc3c2CN(C(C)=O)CC3)cc1,inactive
11,CC(C)N1C[C@H](O)C[C@H]1c1nc(-c2ccc(F)cc2)no1,"inconclusive: 158 µM [inhibitor, single point]"
12,Cc1cc(C)cc(C(=O)N2CCC(Oc3ccc(C(=O)N(C)C)cn3)CC2)c1,inactive
13,COc1ccc(CNC(=O)NCC(=O)N2CCCCCCNC(=O)CC2c2ccccc2)cc1 (stereo unspecified),inactive
14,CC(C)c1noc(-c2cn(C3CCN(C(=O)c4ccc(F)c(F)c4)CC3)nn2)n1,"inconclusive: 44.7 µM [inhibitor, partial curve, poor fit]"
15,Cc1nc2sccn2c1C(=O)NC1CC(c2nnc(CN(C)C)n2C)C1 (stereo unspecified),"inconclusive: 14.1 µM [inhibitor, full curve]"
16,COCCCNC(=O)c1cc(-c2ccsc2)nc2c1cnn2C,inactive
17,Cc1cc(C(=O)NCCc2csc(-c3cccnc3)n2)cc(S(N)(=O)=O)c1C,"inconclusive: 50.1 µM [inhibitor, partial curve, poor fit]"
18,OCC#Cc1csc(CN2CCCN(C3CCCCC3)CC2)c1,"inconclusive: 31.6 µM [inhibitor, partial curve, poor fit]"
19,CN(C)C[C@@H]1CN(Cc2ccccc2)C[C@H]1NC(=O)c1ccco1,inactive
20,CSc1ccc(-c2cccc(CN3CCC(NC(=O)c4ccccc4Cl)CC3)c2)cc1,active: 39.8 µM
21,COc1ccc(CN2Cc3[nH]nc(-c4ccccc4Cl)c3CC2=O)cc1,"inconclusive: 112 µM [inhibitor, partial curve, poor fit]"
22,COc1ncc(-c2ccnc(-c3nnc(C)n3-c3ccccc3)c2)cn1,inactive
23,O=C(C1CCCN1C(=O)Cc1cccc(Cl)c1)N1CCC(N2Cc3cccn3C2=O)CC1 (stereo unspecified),inactive

row,Structure (SMILES),Potency
1,CCOc1ccc(NC(=O)Cn2c(N3CCc4ccccc4C3)nc(C)cc2=O)cc1,active: 39.8 µM
2,COc1cc(NC(=O)C2Cn3cccc3C(=O)N2)cc(OC)c1 (stereo unspecified),inactive
3,O=c1cc(N2CCOCC2)oc2c(-c3ccccc3O)nccc12,inactive
4,COc1ccccc1Nc1ccnc(N2CCC(C(=O)NCc3ccc(C(F)(F)F)cc3)CC2)n1,active: 31.6 µM
5,CC1=NS(=O)(=O)N(Cc2ccccc2)C=C1C(=O)OCc1noc(C2CCCCC2)n1,"inconclusive: 35.5 µM [inhibitor, partial curve, poor fit]"
6,O=C(c1ccccc1)N1Cc2ccccc2CC2(CCCCN2CC2CCNC2)C1 (stereo unspecified),active: 79.4 µM
7,CCN1CCCC12Cc1ccccc1CN([S+](C)(=O)[O-])C2 (stereo unspecified),inactive
8,CC(C)c1noc(CC2CCN(C(=O)c3ccc(F)cc3)CC2)n1,"inconclusive: 22.4 µM [inhibitor, partial curve, poor fit]"
9,c1ccc(-c2csc(CCNc3nccc(-c4ccccn4)n3)n2)cc1,"inconclusive: 39.8 µM [inhibitor, partial curve, poor fit]"
10,Cn1cc(C2CCN(C(=O)c3sc(Cl)c(Cl)c3Cl)CC2)c2ccccc21,"inconclusive: 44.7 µM [inhibitor, partial curve, poor fit]"
11,CN(Cc1cc(C[C@@H]2C[C@H](NS(C)(=O)=O)C2(C)C)no1)c1ccccc1,"inconclusive: 100 µM [inhibitor, partial curve]"
12,O=C(Cc1ccccc1)N1CCN(c2ccc3nnc(-c4ccccc4)n3n2)CC1,"inconclusive: 50.1 µM [inhibitor, partial curve, poor fit]"
13,O=C(c1cccc(Cl)c1)N1CCc2nc(-c3ccccc3)nc(-c3ccc(Cl)cc3)c2C1,active: 28.2 µM
14,Cc1ccc(C(=O)NC2CCN(Cc3ccc(-c4ccsc4)cc3)C2)cc1 (stereo unspecified),inactive
15,COc1ccc(NC(=O)Cn2ccn3nc4c(c3c2=O)CCCCC4)cc1Cl,"inconclusive: 70.8 µM [inhibitor, single point]"
16,COCC(=O)N1CCC(c2nn(-c3ccc(Cl)cc3)c(=O)[nH]2)CC1,inactive
17,O=C(c1ccco1)N1CCN(C(=O)c2nnn3c2COC(c2ccc(Cl)cc2)C3)CC1 (stereo unspecified),"inconclusive: 79.4 µM [inhibitor, partial curve, poor fit]"
18,COc1ccccc1CNC(=O)[C@@H]1Cc2cn(C)c3cccc(c23)[C@H](CC(C)C)N1,active: 44.7 µM
19,CC(C)(C)c1nc(C(=O)NCCc2ccc(Cl)cc2)n2ccccc12,inactive
20,CS(=O)(=O)CC(=O)Nc1ccccc1C(=O)NCc1ccccn1,"inconclusive: 100 µM [inhibitor, single point]"
21,CCc1cc(=O)n(CC(=O)Nc2cc(OC)c(OC)c(OC)c2)c(-c2ccccc2)n1,active: 44.7 µM
22,CCCCNC(=O)c1ccc2c(c1)n(Cc1cccc(OC)c1)c(=O)c1ccnn12,inactive
23,Cc1cc(=O)cc(C(=O)NC2CC(c3cc(=O)[nH]c(C4CC4)n3)C2)o1 (stereo unspecified),inactive
